From PubChem BioAssay AID1468 (National Center for Advancing Translational Sciences (NCATS), 2008)
Hit rate of the full screen: of about 280,000 compounds, about 1,100 (0.39%) were called active. The shares of active, inactive and inconclusive entries below differ from those in the screen. Calls come from the whole dose curve; as a rule, active = well fitted inhibition curve with a large enough effect; inconclusive = small, poorly fitted or top-dose-only effect, or effect the other way; inactive = flat fitted curve, though single readings scatter. Potencies of inconclusive entries are left out as doubtful fits.

molecular target: Microtubule-associated protein tau (Homo sapiens) (UniProt P10636); experiment: qHTS for Inhibitors of Tau Fibril Formation, Fluorescence Polarization; conditions: K18 P301L tau heparin fibrillization, Alexa594 FP, 6 h; series mostly up to 57.7 µM; note: nearly all actives have a fitted effect of over 55% in size
Chain of UniProt P10636 (P10636 whole entry, looked up): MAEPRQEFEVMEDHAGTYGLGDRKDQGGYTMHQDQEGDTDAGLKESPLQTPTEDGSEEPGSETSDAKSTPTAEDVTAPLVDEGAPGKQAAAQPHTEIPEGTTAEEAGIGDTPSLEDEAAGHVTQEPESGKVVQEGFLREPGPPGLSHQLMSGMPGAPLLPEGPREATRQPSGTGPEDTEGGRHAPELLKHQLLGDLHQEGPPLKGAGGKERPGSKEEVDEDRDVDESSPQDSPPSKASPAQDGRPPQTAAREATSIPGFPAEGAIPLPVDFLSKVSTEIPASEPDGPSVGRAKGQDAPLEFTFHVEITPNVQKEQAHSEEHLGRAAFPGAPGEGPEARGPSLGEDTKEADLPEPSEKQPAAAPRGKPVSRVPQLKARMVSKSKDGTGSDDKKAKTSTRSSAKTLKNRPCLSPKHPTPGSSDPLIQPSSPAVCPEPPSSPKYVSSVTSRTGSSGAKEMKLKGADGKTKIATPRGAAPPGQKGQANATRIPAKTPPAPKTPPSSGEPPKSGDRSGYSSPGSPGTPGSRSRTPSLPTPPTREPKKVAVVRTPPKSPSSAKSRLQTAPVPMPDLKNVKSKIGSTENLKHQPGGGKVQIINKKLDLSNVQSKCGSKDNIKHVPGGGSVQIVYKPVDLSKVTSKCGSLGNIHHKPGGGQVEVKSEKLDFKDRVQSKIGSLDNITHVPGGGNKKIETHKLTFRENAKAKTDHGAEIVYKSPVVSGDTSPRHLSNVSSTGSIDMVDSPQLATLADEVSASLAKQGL
Procedure, shortened: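 FP of Alexa 594-tau after heparin (20 uM) induction. Substrate: human K18 P301L, 15 uM unlabeled, 0.24 uM labeled. Buffer 100 mM sodium acetate pH 7. 6 hr, 37 C.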
Potency is the fitted concentration of half-maximal effect; tags give direction and shape of the fitted curve.

Cc1ccc(N2C(=O)c3n[nH]c(C)c3C2c2ccccc2Cl)cc1 (stereo not given) was tested. Which Potency did it give?
Its Potency is inconclusive [inhibitor, full curve, poor fit].

Which Potency does the source give for Cc1ccc(C)c2c1[nH]c1ccc([N+](=O)[O-])cc12 here?
The Potency was inconclusive [inhibitor, partial curve].

For Cc1cc(NC(=O)CN2C(=O)S/C(=C\c3ccccc3)C2=O)no1, which Potency is on record?
Its Potency is inconclusive [inhibitor, single point].

For CSc1ccccc1NC(=O)Nc1ccc(F)c(Cl)c1, which Potency is on record?
Its Potency is inconclusive [inhibitor, single point].

How did the Potency turn out when Cc1cc(C(F)F)nn1CC(=O)NCc1ccco1 was run?
Its Potency is inconclusive [inhibitor, single point].

For O=C(CNS(=O)(=O)c1ccccc1)N/N=C\c1ccc(Cl)cc1, which Potency is on record?
Its Potency is inconclusive [inhibitor, single point].

O=C(CSc1nc2c([nH]c3ccccc32)c(=O)n1-c1cccc(Cl)c1)c1ccccc1 was tested. Which Potency did it give?
The Potency was “inactive”.

How did the Potency turn out when COc1ccc(N2CCN(CCCNC(=O)c3cnn(-c4ccc(C)cc4)c3-n3cccc3)CC2)cc1 was run?
The Potency was inconclusive [activator, single point].

Which Potency does the source give for CC(C)(C)C1CCc2c(sc(NC(=O)c3ccco3)c2C(=O)Nc2ccccc2Cl)C1 (stereo not given) here?
The Potency was inconclusive [inhibitor, partial curve, poor fit].

How did the Potency turn out when CCOc1ccc(C(=O)OCc2cc(=O)n3nc(C4CC4)sc3n2)cc1 was run?
The Potency was “inactive”.

Which Potency does the source give for CN(C)S(=O)(=O)c1ccc(C(=O)Nc2ccc(Cl)cc2)cc1 here?
The Potency was inconclusive [inhibitor, single point].

How did the Potency turn out when Cc1ccccc1OCC(=O)Nc1ccc(-c2nc3cc(Cl)cc(Cl)c3o2)cc1 was run?
Its Potency is “inactive”.

Which Potency does the source give for COc1ccc2ccccc2c1/C=N/NC(=O)c1cccc(Br)c1 here?
The Potency was inconclusive [inhibitor, single point].

With Cn1ccc2c(OCC(=O)Nc3ccc(OC(F)(F)F)cc3)cccc2c1=O as the compound, how does the Potency read?
The Potency was inconclusive [inhibitor, single point].

How did the Potency turn out when CC(=O)NCC(=O)OCC(=O)Nc1nc(-c2ccccc2)cs1 was run?
The Potency was “inactive”.

For COc1ccc2c(c1)CC/C(=C\Nc1ccc3c(c1)OCO3)C2=O, which Potency is on record?
Its Potency is inconclusive [inhibitor, full curve].

With O=c1c(O)c(Br)ccc2c(Br)c(O)c(O)c(O)c12 as the compound, how does the Potency read?
The Potency was active: 10 µM.

Which Potency does the source give for CN1CCN(C(CNS(=O)(=O)c2ccc(Cl)cc2)c2cccnc2)CC1 (stereo not given) here?
Its Potency is “inactive”.

Which Potency does the source give for CC(NC(=O)Nc1ccc(O)cc1)(C(F)(F)F)C(F)(F)F here?
Its Potency is inconclusive [inhibitor, partial curve].

For Cc1cc(NC(=O)NCc2ccc3c(c2)CCN3C(=O)c2ccccc2)ccc1Br, which Potency is on record?
The Potency was inconclusive [inhibitor, partial curve].

With Cc1cc(C)c2c(=O)cc(C(=O)Nc3ccc(S(=O)(=O)N(C)Cc4ccccc4)cc3)oc2c1 as the compound, how does the Potency read?
The Potency was inconclusive [inhibitor, full curve].

Cc1nn(-c2ccc(F)cc2)c(-n2cccc2)c1C(=O)NCCCN1CCN(c2cccc(Cl)c2)CC1 was tested. Which Potency did it give?
Its Potency is “inactive”.

With CCCOC(=O)/C(=C\C=C\c1ccco1)NC(=O)c1ccccc1 as the compound, how does the Potency read?
Its Potency is inconclusive [inhibitor, single point].

O=C(/C=C/c1ccccc1Cl)Nc1ccccc1 was tested. Which Potency did it give?
Its Potency is inconclusive [inhibitor, single point].

For O=C(Cn1cc(C(=O)c2ccco2)c2ccccc21)Nc1ccccc1Cl, which Potency is on record?
Its Potency is inconclusive [inhibitor, partial curve].

With CCCCOc1ccc(C2C3CN(C(=O)OCC)CC=C3C(C#N)=C(N)C2(C#N)C#N)cc1OC (stereo not given) as the compound, how does the Potency read?
The Potency was inconclusive [inhibitor, partial curve].

FCCCOc1ccc(-c2nccc(-c3ccc(Cl)cc3)n2)cc1 was tested. Which Potency did it give?
Its Potency is inconclusive [inhibitor, single point].

C=C(C)Cn1c(COc2ccccc2)nnc1SCC(=O)O was tested. Which Potency did it give?
Its Potency is inconclusive [inhibitor, partial curve, poor fit].

For COc1ccc2[nH]c(=O)c(CNc3ccccc3OC)cc2c1, which Potency is on record?
Its Potency is active: 10 µM.

For Cc1ccc(OCCN2CCN(C)CC2)c([N+](=O)[O-])c1, which Potency is on record?
Its Potency is “inactive”.

Which Potency does the source give for CCOc1ccc(NC(=O)c2c(NCc3sccc3C)sc3c2CCCCC3)cc1 here?
The Potency was inconclusive [inhibitor, single point].

COc1ccc(CNC(=O)c2ccc3c(c2)N(Cc2ccccc2F)C(=O)c2ccccc2S3(=O)=O)cc1 was tested. Which Potency did it give?
Its Potency is inconclusive [inhibitor, full curve].

Which Potency does the source give for CC(=O)Nc1ccc(NC(=O)CSc2ccc(-c3ccc4c(c3)OCO4)nn2)cc1 here?
The Potency was inconclusive [inhibitor, single point].

For N#Cc1c(C(F)(F)F)cc(-c2cccs2)nc1SCC(=O)Nc1ccc(F)cc1, which Potency is on record?
The Potency was inconclusive [inhibitor, partial curve].

Which Potency does the source give for CCN(CCNCC(O)COCc1ccc(Cl)cc1)c1cccc(C)c1 (stereo not given) here?
The Potency was “inactive”.

CC(c1cccs1)N(Cc1ccco1)C(=S)Nc1ccccc1Cl (stereo not given) was tested. Which Potency did it give?
The Potency was inconclusive [inhibitor, partial curve, poor fit].

With CCCN(CCC)c1nc(-c2ccccc2F)nc2ccccc12 as the compound, how does the Potency read?
The Potency was “inactive”.

Which Potency does the source give for O=c1c2cc(N3CCOCC3)ccc2[nH]c(=S)n1Cc1ccco1 here?
The Potency was inconclusive [inhibitor, single point].

With Cc1ccc(-n2nc(C)c3c(C(=O)NCc4ccc(F)cc4)cc(C)nc32)cc1 as the compound, how does the Potency read?
Its Potency is inconclusive [inhibitor, partial curve, poor fit].

Which Potency does the source give for O=c1c(C(c2ccc(O)cc2)c2c(O)nc3n(c2=O)CCS3)c(O)nc2n1CCS2 here?
The Potency was “inactive”.

O=C(CC1S/C(=N/N=C/c2c[nH]c3ccccc23)NC1=O)Nc1ccccc1 (stereo not given) was tested. Which Potency did it give?
The Potency was inconclusive [activator, partial curve].

N#Cc1c(NC(=O)CCC(=O)O)sc2c1CCCCC2 was tested. Which Potency did it give?
The Potency was inconclusive [inhibitor, single point].

With CCOc1ccc(S(=O)(=O)Nc2cc(Sc3ncn[nH]3)c3oc(=O)sc3c2)cc1 as the compound, how does the Potency read?
The Potency was inconclusive [inhibitor, partial curve, poor fit].

With O=C1N(Cc2cccc(C(F)(F)F)c2)c2ccccc2S(=O)(=O)N1c1cccc(Cl)c1 as the compound, how does the Potency read?
Its Potency is inconclusive [inhibitor, single point].

For COc1ccc(NC(=O)CSc2nc(-c3cccs3)cc(C(F)(F)F)c2C#N)cc1, which Potency is on record?
Its Potency is inconclusive [inhibitor, partial curve].

How did the Potency turn out when O=C(Nc1ccccc1-c1nc2ccccc2[nH]1)c1sc2ccccc2c1Cl was run?
The Potency was inconclusive [inhibitor, full curve].

How did the Potency turn out when COc1ccc2cc(C#N)c(SCC(=O)NNC(=O)Cc3ccccc3)nc2c1 was run?
Its Potency is inconclusive [inhibitor, single point].

With O=C1NN(c2ccccc2)C(=O)/C1=C\c1cccc(OC(=O)c2cccs2)c1 as the compound, how does the Potency read?
The Potency was inconclusive [inhibitor, single point].

For CCn1cnc2sc(C(=O)Oc3ccc(Br)cc3)c(C)c2c1=O, which Potency is on record?
The Potency was inconclusive [inhibitor, partial curve].

Which Potency does the source give for CC1CCCCC1NC(=S)NC(=O)c1sc2ccccc2c1Cl (stereo not given) here?
The Potency was “inactive”.

How did the Potency turn out when Cc1[nH]c2ccccc2c1CN1CCC(Cc2ccccc2)CC1 was run?
The Potency was “inactive”.

For CN(C)c1nc(N)c(C(=O)N=C(N)N)nc1Cl, which Potency is on record?
The Potency was inconclusive [inhibitor, full curve, poor fit].

For C/C(=N\NC(=O)c1ccc(C)cc1C)c1ccc2c(c1)Nc1ccccc1S2, which Potency is on record?
Its Potency is inconclusive [activator, full curve, poor fit].

With COc1ccccc1NC(=O)c1csc(-n2nc(C)cc2C(F)(F)F)n1 as the compound, how does the Potency read?
Its Potency is “inactive”.

How did the Potency turn out when COc1ccc(C(=O)NCCSCc2ccccc2)cc1OC was run?
Its Potency is inconclusive [inhibitor, single point].

How did the Potency turn out when CCOc1ccc(NC(=O)Cn2c(=O)n(Cc3nc(-c4ccccc4)no3)c(=O)c3cc4c(cc32)OCO4)cc1 was run?
The Potency was inconclusive [inhibitor, partial curve].

How did the Potency turn out when CN1C(=S)SC(N(O)C(=O)Nc2ccc(Cl)c(Cl)c2)C1(C)C (stereo not given) was run?
Its Potency is inconclusive [inhibitor, partial curve, poor fit].

How did the Potency turn out when Cc1ccc(-c2nc3nc(C)cc(C)n3c2Nc2ccc3c(c2)OCCO3)cc1 was run?
Its Potency is inconclusive [activator, partial curve, poor fit].

How did the Potency turn out when Cc1cccc(-c2nc3nc(C)cc(NCc4ccccc4Cl)n3n2)c1 was run?
Its Potency is inconclusive [inhibitor, single point].

For COc1ccc(-c2cc(C(F)(F)F)nc(-n3nc(C(F)(F)F)cc3C)n2)cc1, which Potency is on record?
The Potency was inconclusive [inhibitor, single point].

Which Potency does the source give for Cc1ccc(Cn2ccc(-c3cnc(-c4ccccc4)s3)n2)cc1 here?
Its Potency is inconclusive [inhibitor, single point].

How did the Potency turn out when COc1ccccc1CC1S/C(=N/N=C/c2ccco2)NC1=O (stereo not given) was run?
The Potency was inconclusive [inhibitor, single point].

With O=C(NCC(c1cccs1)S(=O)(=O)c1cccs1)c1ccc(Cl)cc1 (stereo not given) as the compound, how does the Potency read?
The Potency was inconclusive [inhibitor, single point].

COc1ccc(NS(=O)(=O)c2ccc(NS(=O)(=O)c3ccc(SC)cc3)cc2)c(OC)c1 was tested. Which Potency did it give?
Its Potency is inconclusive [inhibitor, single point].

With COCCNC(=O)c1nc2c(nnn2Cc2cc(C)ccc2C)c(=O)[nH]1 as the compound, how does the Potency read?
Its Potency is “inactive”.
